Each block holds one binder with its values, some of them ahead of it.
Key:
[1] = target: T1, PD-1蛋白 (冻干, fortebio assay) (UniProt Q15116 in part, limits assumed); experiment: BLI (Octet K2), antibody captured on Protein A sensor, PD-1 protein as analyte from 50 nM, 2-fold dilutions
T1 construct: also called 抗原PD-1蛋白; 冻干PD-1蛋白

人PD-1蛋白(Acro PD1-HB2F2) = target: T2, 人PD-1蛋白(Acro PD1-HB2F2) (human, UniProt Q15116 in part, limits assumed); experiment: ELISA, human PD-1 protein coated at 20 ng/mL, antibody titrated from 1000 ng/mL
Sequence of 人PD-1蛋白(Acro PD1-HB2F2) (Q15116 25-167 limits assumed): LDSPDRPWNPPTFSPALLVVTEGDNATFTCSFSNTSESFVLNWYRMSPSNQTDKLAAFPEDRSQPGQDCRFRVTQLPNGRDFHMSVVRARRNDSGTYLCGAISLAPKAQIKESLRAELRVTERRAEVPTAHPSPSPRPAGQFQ
T2 construct: Bought protein coated on the ELISA plate; also called 抗原PD-1蛋白; human PD-1 protein

B1: PR (Fc fusion)
chain: QVQLQESGGGLVQPGGSLRLSCAASGSTYLRFSMGWFRQVPGKGLEGVAAIGGDGRTSYADSVKGRFTISKDNSKNTLYLDMNSLRAEDTAVYYCAAAVLLDGSFSLLAPLVPYKYDYWGQGTLVTVSS[omitted - human IgG4 Fc with S228P (EU numbers)]
notes: Expressed in CHO-S cells and purified on Protein A; also called 优化前序列PR; 对照抗体
Kd [1]: 4.72 nM
koff [1]: 0.00113 s⁻¹
kon [1]: 239000 M⁻¹ s⁻¹
EC50 (人PD-1蛋白(Acro PD1-HB2F2)): 0.0159 µg/mL

B4: 抗PD-1纳米抗体 N10 (Fc fusion)
chain: QVQLQESGGGLVQPGGSLRLSCAASGSTYLRFSMGWFRQVPGKEREGVAAIGGDGRTSYADSVKGRFTISKDNSKNTLYLDMNSLRAEDTAVYYCAAAVLLDGSFSLLAPLVPYKYDYWGQGTLVTVSSEPKIPQPQPKPQPQPQPQPKPQPKPEPE[omitted - human IgG4 Fc with S228P (EU numbers)]
kon [1]: 277000 M⁻¹ s⁻¹
EC50 (人PD-1蛋白(Acro PD1-HB2F2)): 0.0149 µg/mL

The next lines start with the values.

kon [1]: 316000 M⁻¹ s⁻¹
EC50 (人PD-1蛋白(Acro PD1-HB2F2)): 0.0111 µg/mL
B2: 抗PD-1纳米抗体 N15 (Fc fusion)
chain: QVQLQESGGGLVQPGGSLRLSCAASGSTYLRFSMGWFRQVPGKEREGVAAIGGDGRTSYADSVKGRFTISKDNSKNTLYLDMNSLRAEDTAVYYCAAAVLLDGSFSLLAPLVPYKYDYWGQGTLVTVSSEPKIPQPQPKPQPKPEPE[omitted - human IgG4 Fc with S228P (EU numbers)]

kon [1]: 249000 M⁻¹ s⁻¹
EC50 (人PD-1蛋白(Acro PD1-HB2F2)): 0.0151 µg/mL
B3: 抗PD-1纳米抗体 N14 (Fc fusion)
chain: QVQLQESGGGLVQPGGSLRLSCAASGSTYLRFSMGWFRQVPGKEREGVAAIGGDGRTSYADSVKGRFTISKDNSKNTLYLDMNSLRAEDTAVYYCAAAVLLDGSFSLLAPLVPYKYDYWGQGTLVTVSSEPKIPQPQPK[omitted - human IgG4 Fc with S228P (EU numbers)]

— CN114984207A (ZHEJIANG TERUISI PHARMACEUTICAL INC, dated 2022)
